# Measurements published in a collection of fitness landscapes (doi:10.1016/j.celrep.2020.107928).
# Whole data set: some 81,000 sequences, median “one-hybrid fitness for binding parS DNA” near -0.17, cut for the highest 2% near 0.51. The list shows a part of the results.
# B1: Caulobacter ParB omega fusion; a variant is named by its letters at X, in order, B8GW30 (parent)
# chain: MESVVVGEPGMSEGRRGLGRGLSALLGEVDAAPAQAPGEQLGGSREAPIEILQRNPDQPRRTFREEDLEDLSNSIREKGVLQPILVRPSPDTAGEYQIVAGERAWRAAQRAGLKTVPIMVRELDDLAVLEIGIIENVQRADLNVLEEALSYKVLMEKFERTQENIAQTIGKSXSHVANXMRLLXLPDEVQSYLVSGELTAXHARAIAAAADPVALAKQIIEGGLSVRETEALARKAPNLSAGKSKGGRPPRVKDTDTQALESDLSSVLGLDVSIDHRGSTGTLTITYATLEQLDDLCNRLTRGI
# Variants of: B1
# Test: one-hybrid fitness for binding parS DNA (scaled: cognate 1, non-cognate 0); higher = stronger binding
# Details: with parS DNA site
# Procedure, shortened: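 Bacterial one-hybrid selection in E. coli USO rpoZ- hisB- pyrF- with a HIS3 reporter carrying the site 19 bp from the promoter, screening Caulobacter ParB libraries with four specificity codons randomised (NNS). Cells grew 48 hours at 37°C on M9-minus-histidine plus 0.1 mM IPTG and 5 mM 3-AT. Plasmids before and after selection were Illumina-sequenced, three replicate libraries pooled, and variants under 10 reads dropped. Fitness is the log change in variant-to-wild-type read ratio, rescaled to cognate 1, non-cognate 0.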
row,Variant,one-hybrid fitness for binding parS DNA
1,GNKV,≤ 0.2
2,GMRY,≤ 0.2
3,RQQL,≤ 0.2
4,CNIY,≤ 0.2
5,LRRI,≤ 0.2
6,VGAT,≤ 0.2
7,QQPE,≤ 0.2
8,LVAE,≤ 0.2
9,DVGP,≤ 0.2
10,PAKS,≤ 0.2
11,HIFL,≤ 0.2
12,TMAW,≤ 0.2
13,DFDR,≤ 0.2
14,VSTW,≤ 0.2
15,TDNV,≤ 0.2
16,DWSM,≤ 0.2
17,TRYP,≤ 0.2
18,QPVS,≤ 0.2
19,NPQM,≤ 0.2
20,MGNT,≤ 0.2
21,KATT,≤ 0.2
22,TAIE,≤ 0.2
23,ECHG,≤ 0.2
24,AFES,≤ 0.2
25,YTQP,≤ 0.2

row,Variant,one-hybrid fitness for binding parS DNA
1,GISV,≤ 0.2
2,RTTL,≤ 0.2
3,PWGN,≤ 0.2
4,TLSS,≤ 0.2
5,TVLN,≤ 0.2
6,ATYY,≤ 0.2
7,PPES,≤ 0.2
8,QPHL,≤ 0.2
9,NTDS,≤ 0.2
10,SIVS,≤ 0.2
11,AALT,≤ 0.2
12,CDAT,≤ 0.2
13,EHNR,≤ 0.2
14,DIHC,≤ 0.2
15,QNHV,≤ 0.2
16,RVYN,0.46
17,KSKT,≤ 0.2
18,HDER,≤ 0.2
19,AKML,≤ 0.2
20,IHYG,≤ 0.2
21,LIYS,≤ 0.2
22,RYIW,≤ 0.2
23,QIRM,≤ 0.2
24,AVPH,≤ 0.2
25,FTHE,≤ 0.2

row,Variant,one-hybrid fitness for binding parS DNA
1,NDLS,≤ 0.2
2,WIYG,≤ 0.2
3,RLLS,1.05
4,YKVG,≤ 0.2
5,HQKR,≤ 0.2
6,NYAL,≤ 0.2
7,CQKS,≤ 0.2
8,FRMA,≤ 0.2
9,TVKL,≤ 0.2
10,DRLS,≤ 0.2
11,HAST,≤ 0.2
12,LQFE,≤ 0.2
13,IRGT,≤ 0.2
14,IMSE,≤ 0.2
15,RYDR,≤ 0.2
16,QTHG,≤ 0.2
17,CFTP,≤ 0.2
18,WSQC,≤ 0.2
19,LCGG,≤ 0.2
20,TPPD,≤ 0.2
21,KTVQ,≤ 0.2
22,DIFL,≤ 0.2
23,HYIG,≤ 0.2
24,QYGG,≤ 0.2
25,NNYR,≤ 0.2

row,Variant,one-hybrid fitness for binding parS DNA
1,PFNP,≤ 0.2
2,RMSA,0.59
3,QVHP,≤ 0.2
4,HLRP,≤ 0.2
5,RTMM,0.346
6,RYFW,≤ 0.2
7,NSSF,≤ 0.2
8,QHNW,≤ 0.2
9,MVYS,≤ 0.2
10,QAPR,≤ 0.2
11,YSTW,≤ 0.2
12,IFLF,≤ 0.2
13,AQFG,≤ 0.2
14,RYGC,0.914
15,TFRS,≤ 0.2
16,STKL,≤ 0.2
17,PSTQ,≤ 0.2
18,HPPN,≤ 0.2
19,SLKV,≤ 0.2
20,SPTP,≤ 0.2
21,LSRE,≤ 0.2
22,GHSS,≤ 0.2
23,NHRT,≤ 0.2
24,MPYL,≤ 0.2
25,ERHM,≤ 0.2

row,Variant,one-hybrid fitness for binding parS DNA
1,YRMN,≤ 0.2
2,WSCE,≤ 0.2
3,NEAC,≤ 0.2
4,THPD,≤ 0.2
5,RHLC,0.928
6,MSVF,≤ 0.2
7,ATSI,≤ 0.2
8,CACS,≤ 0.2
9,QAVL,≤ 0.2
10,SNPE,≤ 0.2
11,WQSY,≤ 0.2
12,MAQT,≤ 0.2
13,LKVT,≤ 0.2
14,KREI,≤ 0.2
15,DRGN,≤ 0.2
16,NLSD,≤ 0.2
17,CTYL,≤ 0.2
18,MNYG,≤ 0.2
19,CPSW,≤ 0.2
20,QWVC,≤ 0.2
21,EERG,≤ 0.2
22,IMIV,≤ 0.2
23,YKDD,≤ 0.2
24,VEAS,≤ 0.2
25,MHQR,≤ 0.2

row,Variant,one-hybrid fitness for binding parS DNA
1,TTNL,≤ 0.2
2,DSLD,≤ 0.2
3,TLHP,≤ 0.2
4,LNIG,≤ 0.2
5,LAES,≤ 0.2
6,VPVQ,≤ 0.2
7,GYQN,≤ 0.2
8,TLGL,≤ 0.2
9,TGGK,≤ 0.2
10,PTIG,≤ 0.2
11,VHAN,≤ 0.2
12,PKEV,≤ 0.2
13,RDTT,≤ 0.2
14,RPDK,≤ 0.2
15,QYHM,≤ 0.2
16,QYLP,≤ 0.2
17,HPSR,≤ 0.2
18,DPMR,≤ 0.2
19,AGNP,≤ 0.2
20,PYHT,≤ 0.2
21,ITPA,≤ 0.2
22,AGSI,≤ 0.2
23,MFLS,≤ 0.2
24,FVNW,≤ 0.2
25,SRNI,≤ 0.2

row,Variant,one-hybrid fitness for binding parS DNA
1,AITI,≤ 0.2
2,RRDH,≤ 0.2
3,SHIS,≤ 0.2
4,KRII,≤ 0.2
5,TFFR,≤ 0.2
6,VLIY,≤ 0.2
7,DCLS,≤ 0.2
8,YDKR,≤ 0.2
9,QRNG,≤ 0.2
10,RHKH,0.248
11,RYNR,≤ 0.2
12,ALGN,≤ 0.2
13,QALC,≤ 0.2
14,TDSE,≤ 0.2
15,CAHY,≤ 0.2
16,NRCK,≤ 0.2
17,YASF,≤ 0.2
18,HRCN,≤ 0.2
19,NSQI,≤ 0.2
20,LVCS,≤ 0.2
21,CPTI,≤ 0.2
22,GNHE,≤ 0.2
23,PWYP,≤ 0.2
24,LVHV,≤ 0.2
25,CRYT,≤ 0.2

row,Variant,one-hybrid fitness for binding parS DNA
1,MQES,≤ 0.2
2,SQDF,≤ 0.2
3,SPVV,≤ 0.2
4,RRTY,0.398
5,RYHA,0.545
6,HMVC,≤ 0.2
7,HVNG,≤ 0.2
8,MNQR,≤ 0.2
9,TLGT,≤ 0.2
10,KFPG,≤ 0.2
11,QWHV,≤ 0.2
12,GLLH,≤ 0.2
13,CRLL,≤ 0.2
14,MYTR,≤ 0.2
15,FWRW,≤ 0.2
16,AISE,≤ 0.2
17,DLKL,≤ 0.2
18,IGDN,≤ 0.2
19,ARWW,0.23
20,RHYC,0.92
